# According to PubChem BioAssay AID651820 (National Center for Advancing Translational Sciences (NCATS), 2012):
# Hit rate of the full screen: of about 340,000 compounds, about 12,000 (3.5%) were called active. The inconclusive results got no clear call from the source; some entries with a clear call stand among them for comparison. Calls follow the shape of the dose curve; as a rule, active = well fitted inhibition curve with a large enough effect; inconclusive = small, poorly fitted or top-dose-only effect, or another doubt; inactive = no such curve, though single readings can be large or run the other way. No potency is given beside an inconclusive call; the fits are too rough.
# Assay: qHTS Assay for Inhibitors of Hepatitis C Virus (HCV)
# Conditions: Huh7.5.1 HCVcc-Cre (HCVcc is cell-culture hepatitis C virus) infection, luciferase reporter, 44 h; activity change, negative = inhibition: at 41.8 µM (top of the series)
# In short: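 Cells seeded at 1,000/well and cultured 4 h, then compounds added followed by HCVcc-Cre virus (~0.5 moi). After 44 h further culture, luciferase substrate was added, plates held 15 min at room temperature, and luminescence read for 15 sec.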
# % is scaled to controls: 0 for no effect and ±100 for the full control effect; potency is read from the fitted curve at half-maximal effect; tags tell the direction and shape of the fitted curve.
SMILES,Potency,"activity change, negative = inhibition"
Oc1ccc(-c2[nH]ncc2-c2cccc3cccnc23)c(O)c1,"inconclusive [inhibitor, partial curve]",–
O=[N+]([O-])c1ccc2c(c1)C(=NO)c1cc(Cl)c(Cl)cc1-2,active: 11.2 µM,–
COc1cccc(C2=NOC(C(=O)Nc3ccc(OC)c(OC)c3)C2)c1 (stereo not drawn),"inconclusive [inhibitor, single point]",–
Nc1c(C(=O)NCCN2CCOCC2)c2nc3ccccc3nc2n1CCc1ccccc1,"inconclusive [inhibitor, single point]",–
Cn1cc(CN2CCN(c3ncccn3)CC2)c(-c2cccc(Cl)c2)n1,–,inactive: 7.46%
C/C(=N\NC(=O)COc1ccccc1F)c1cc2ccccc2o1,"inconclusive [inhibitor, partial curve]",–
CN(CC(=O)Nc1cccc(F)c1)C(=O)c1ccc(N2CCCCCC2)c([N+](=O)[O-])c1,"inconclusive [inhibitor, partial curve]",–
CCn1c(=O)c(C(=O)Nc2ncccc2C)c(O)c2ccccc21,active: 10 µM,–
CC(Nc1nc(-c2cccc(Br)c2)cs1)c1nc2cc(Cl)c(N3CCCCC3)cc2n1CCOCCO (stereo not drawn),–,inactive: -11.2%
COc1ccc(CN2CCN(C(=O)c3ccc(S(=O)(=O)NCc4ccco4)cc3)CC2)cc1,"inconclusive [inhibitor, partial curve]",–
CCCc1c(NC(=O)Nc2ccc(Cl)cc2Cl)cnn1-c1ccccc1,"inconclusive [inhibitor, partial curve]",–
O=C(c1ccccc1F)N1CCN(c2cnn(-c3cccc(Cl)c3)c(=O)c2Cl)CC1,"inconclusive [inhibitor, single point]",–
Cc1ccc(S(=O)(=O)N2CCN(C(=O)CN3C(=O)NC(C)(CCC(C)C)C3=O)CC2)c(C)c1 (stereo not drawn),"inconclusive [inhibitor, single point]",–
Cc1[nH]c(=O)[nH]c(=O)c1S(=O)(=O)Nc1ccc(F)cc1Cl,–,inactive: 23.7%
CN1CCN(C(=O)CCN2C(=O)/C(=C\c3ccccc3F)SC2=S)CC1,"inconclusive [inhibitor, partial curve]",–
COc1cccc(CNC(=O)Cn2ccc3cc(S(=O)(=O)N4CCCCCC4)ccc32)c1,active: 12.6 µM,–
CN1CCN(S(=O)(=O)c2ccc(C#N)cc2)C(c2ccccc2)C1 (stereo not drawn),–,inactive: 4.67%
CCN(CC(=O)Nc1ccccc1C(=O)OC)S(=O)(=O)c1ccc(OC)cc1,"inconclusive [inhibitor, single point]",–
CCOc1nc(-c2ccccc2)ncc1Oc1ccccc1,–,inconclusive: -35.2% [inhibitor]
Cc1cc(OC(C)C(=O)NCc2ccncc2)c2c(C)c(C)c(=O)oc2c1 (stereo not drawn),"inconclusive [inhibitor, single point]",–
NC(=S)NNc1cccc(Cl)c1,–,inactive: -16.1%
Cc1ccc(OCC(=O)N2c3ccccc3CC2C)c([N+](=O)[O-])n1 (stereo not drawn),"inconclusive [inhibitor, single point]",–
O=C(CNCc1ccccc1Cl)Nc1ccccc1N1CCCCC1,"inconclusive [inhibitor, single point]",–
CCOc1ccc(C(C(=O)NC2CCCC2)N(C(=O)c2snc(C(N)=O)c2N)c2cccc(O)c2)cc1 (stereo not drawn),active: 12.6 µM,–
CN(C)CCCOc1ccc2c(c1)Sc1ccccc1CC2=O,active: 10 µM,–

SMILES,Potency,"activity change, negative = inhibition"
COc1ccc(OCC(=O)N(C)Cc2ccccc2)cc1,–,inactive: 29.3%
O=C(c1ccco1)N1CCN(C(=O)c2cn(-c3ccccc3)nc2-c2ccc(F)cc2)CC1,"inconclusive [inhibitor, partial curve]",–
COC(=O)C1=C(c2cccc(OCc3ccccc3)c2)C[C@@H]2CC[C@H]1N2C(=O)NCc1ccc(N(C)C)cc1,active: 12.6 µM,–
CC1CCCN(c2ccc(C(=O)OCn3nnc4ccccc4c3=O)cc2[N+](=O)[O-])C1 (stereo not drawn),"inconclusive [inhibitor, partial curve]",–
O=C(Nc1ccc2c(c1)OCO2)C1CCN(Cc2cnn(-c3ccccc3)c2-n2cccc2)CC1,"inconclusive [inhibitor, single point]",–
O=C(CCCn1c(=O)c2sccc2n(CC(=O)OCc2ccccc2)c1=O)NCc1ccco1,"inconclusive [inhibitor, partial curve]",–
O=C(N/N=C/c1ccc(OC(=O)c2cccs2)cc1)c1cccc(F)c1,–,inactive: 7.53%
CC(C)CNc1ncnc2c1sc1nc(N3CCOCC3)c3c(c12)CC(C)(C)OC3,"inconclusive [inhibitor, full curve, poor fit]",–
Cc1ccc(C(=O)COC(=O)c2cnccn2)cc1,–,inactive: 5.43%
O=c1[nH]c(CN2CCN(Cc3ccc4c(c3)OCO4)CC2)nc2ccccc12,inactive,–
COc1ccc([C@H]2CC(=O)C=C(c3ccc(OC(F)(F)F)cc3)C2)cc1OC,"inconclusive [inhibitor, partial curve]",–
CCC(C)NCC(=O)Nc1cc(S(=O)(=O)N(CC)c2ccccc2)ccc1Cl (stereo not drawn),"inconclusive [inhibitor, single point]",–
CN(C)N=C1c2cc(S(=O)(=O)N(C)C)ccc2-c2ccc(S(=O)(=O)N(C)C)cc21,"inconclusive [inhibitor, partial curve]",–
COc1ccc(/C=N/OC(=O)Nc2ccccc2OC)cc1,"inconclusive [inhibitor, full curve]",–
COc1ccc(/C=C/c2noc(-c3ccccc3O)n2)cc1,–,inactive: -4.43%
CC(CCc1ccccc1)NC(=O)CCC1CCCC1 (stereo not drawn),–,inactive: -12.6%
CC(=O)N1CCN(c2ccc(Oc3ccc([N+](=O)[O-])c(C(F)(F)F)c3)cc2)CC1,active: 11.2 µM,–
COc1ccc2c(c1)c(C)cc[n+]2Cc1ccccc1,–,inactive: -17.4%
CSCCC(NC(=O)COc1ccccc1)C(=O)NCCOc1ccccc1 (stereo not drawn),–,inactive: 16.1%
CCC1(c2ccccc2)NC(=O)N(CC(=O)NC2(C#N)CCCCC2)C1=O (stereo not drawn),–,inactive: -24% [at 8.37 µM]
Cc1c(NC(=O)/C=C/c2cn(-c3ccccc3)nc2-c2ccc(F)cc2)c(=O)n(-c2ccccc2)n1C,active: 11.2 µM,–
CCCn1c(SCC(=O)N2c3ccccc3CC2C)nnc1-c1ccco1 (stereo not drawn),–,inactive: -12.9%
CCN(CC)C(=O)[C@H]1CC(CC(=O)NCCc2ccccn2)C(=O)N2CCc3c([nH]c4ccccc34)[C@]12C (stereo partly drawn),"inconclusive [inhibitor, single point]",–
COc1ccc(OC)c(C2=NS(=O)(=O)N(C)C(C(=O)Nc3cccc(C(C)=O)c3)=C2)c1,"inconclusive [inhibitor, single point]",–
Cc1ccc(O)c(NC(=O)c2cccc(S(=O)(=O)N3CCCCC3)c2)c1,active: 11.2 µM,–

SMILES,Potency,"activity change, negative = inhibition"
CN1CCN(C2=Nc3c(Cl)cc(Cl)c4cccc2c34)CC1,"inconclusive [inhibitor, single point]",–
CCOC(=O)C1(S(=O)(=O)c2ccccc2)CCN(Cc2ccc(Cl)cc2)CC1,–,inactive: -13.7%
Cc1cc(C(=O)NCCc2ccccc2)ccc1[N+](=O)[O-],–,inactive: -8.18%
CCOC(=O)c1c(-c2ccco2)csc1NC(=O)CSc1nnc(N)s1,active: 11.2 µM,–
COc1ccc(C(=O)NCCN2C(=O)S/C(=C\c3cccnc3)C2=O)cc1[N+](=O)[O-],–,inactive: -29.5%
Clc1ccc(-n2ncc3c(NCc4ccc5c(c4)OCO5)ncnc32)cc1,–,inactive: -10.8%
CN1C(=O)CS(=O)c2ccc(C(=O)NCCC3=CCCCC3)cc21 (stereo not drawn),"inconclusive [inhibitor, single point]",–
Cc1c(C)c2ccc(OC(C)C(=O)NC3CC(C)(C)NC(C)(C)C3)cc2oc1=O (stereo not drawn),–,inactive: 5.07%
CCOC(=O)C(C)Sc1nc2c(c(=O)[nH]c(=O)n2C)n1CCc1ccccc1 (stereo not drawn),"inconclusive [inhibitor, partial curve]",–
CCN(CC)CCNC(=O)c1ccc(NC(=O)c2ccc(COc3ccccc3)cc2)cc1,active: 11.2 µM,–
Cc1ccccc1C(=O)NC1CC2CCCC(C1)N2Cc1ccccc1 (stereo not drawn),–,inactive: 11.1%
CC(=O)Nc1cccc(OCCCNC(=O)c2ccc(C(C)(C)C)cc2)c1,active: 10 µM,–
COC(=O)N/N=C/c1cn(CCOc2ccc(OC)cc2)c2ccccc12,"inconclusive [inhibitor, single point]",–
CC12CCC(=O)N1C(C(=O)Nc1cc(C(F)(F)F)ccc1N1CCCCC1)CS2 (stereo not drawn),active: 3.55 µM,–
Cc1cc2c(c(C)nn2-c2ccccc2)c(=O)o1,"inconclusive [inhibitor, single point]",–
CCN(CC)Cc1c(O)ccc2occ(C(=O)c3ccc(OC)cc3)c12,–,inactive: -23.9%
Cc1c(C(=O)N2CCN(S(=O)(=O)c3cccs3)CC2)oc2ccc(F)cc12,–,inactive: 15.9%
CCCCN(C)C(=O)CCC(=O)Nc1ccc2nc(N3CCN(C)CC3)cc(C)c2c1,"inconclusive [inhibitor, partial curve]",–
CCCSC1=C(C#N)C(c2ccccc2OCC)CC(=O)N1 (stereo not drawn),"inconclusive [inhibitor, single point]",–
COc1ccc(CC(=O)Nc2nc(C)cs2)cc1OC,"inconclusive [inhibitor, partial curve]",–
N#Cc1c(-c2ccccc2)c(-c2ccccc2)nn(CC(=O)NNC(=O)Nc2ccccc2)c1=O,"inconclusive [inhibitor, single point]",–
CCC(=O)N1c2ccc(S(=O)(=O)NCCc3ccc(OC)c(OC)c3)cc2CC1C (stereo not drawn),–,inactive: -14.4%
COc1ccc(N(CC(=O)NCc2ccccc2Cl)S(=O)(=O)c2c(C)noc2C)cc1,"inconclusive [inhibitor, partial curve]",–
